The values that follow come from article PMC10668032.

Some of the results follow. At the low end of the ranking the order means little.

This test has as its target SIX1-Q177R homeodomain (UniProt Q15475). Nature of the test: universal protein binding microarray. The following applies: Universal all-10-mer PBM (8x60K, AMADID 030236), 300 nM GST-tagged protein, Alexa Fluor 488 anti-GST; buffer, salt, pH and temperature not stated; high values mean tight binding; most listed sequences are background and not binding sites; double strand, one strand shown.
As for GTCAACCA, the binding signal is -0.0523 E-score.
The same measure for AATGGCCT: -0.114 E-score; for CGCACGCG: 0.087 E-score.
The same measure for AGACTCTG: -0.198 E-score; for AGAGACTA: -0.199 E-score.
In the case of CACCACAA, the binding signal turned out to be 0.214 E-score.
Consider AATAAGTG, for which the binding signal came to 0.0548 E-score.
Regarding CCGCTCCC, the binding signal is -0.107 E-score.
For the sequence GCATTGAA, the binding signal was -0.253 E-score.
As for CGAGCGGC, the figure is -0.0884 E-score; as for CGGACGAA, -0.0497 E-score.
As for CTCGCAAC, the figure is 0.0238 E-score; as for CAATATGG, -0.0693 E-score.
The same measure for GACCAAGA: -0.0393 E-score; for CATCTGGA: 0.00653 E-score.
As to ATTACTGA, the binding signal is -0.0971 E-score.
The same measure for GTTCCAAA: -0.164 E-score; for CACCCCCA: 0.368 E-score; for CGTCCCGA: -0.137 E-score.
As for GCTCCAAA, the figure is -0.205 E-score; as for GTTCCGAA, -0.0381 E-score.
For CGAAAGGA, the binding signal was 0.0864 E-score.
As for ATGGACGG, the binding signal was -0.089 E-score.
As to AATGCTGT, the binding signal is -0.259 E-score.
The same measure for CAACCCAA: -0.0185 E-score; for AAGAACGC: -0.162 E-score.
For the sequence CGTGGGAC, the binding signal was determined as 0.0256 E-score.
As to AAAGGAGT, the binding signal was 0.133 E-score.
Consider GCGAAAGA, for which the binding signal is -0.273 E-score.
Consider CTGGTATC, for which the binding signal is 0.274 E-score.
As for GTAAATCA, the figure is -0.144 E-score; as for CAGCTATG, -0.258 E-score; as for CGATCCCG, 0.115 E-score.
As for AAATATAA, the figure is -0.0248 E-score; as for CTAATTTA, -0.207 E-score; as for ACACCTCG, 0.453 E-score.
The same measure for ATCCGCGA: -0.129 E-score.
With AGCTTACC, the binding signal was -0.181 E-score.
The same measure for AAGGTAGC: -0.0391 E-score; for GGCGCTAC: -0.223 E-score.
The same measure for GTTCCGTA: 0.188 E-score.
The same measure for GGATGCCA: -0.0544 E-score; for CTCCCCCC: 0.0235 E-score; for GGCAGTCA: -0.222 E-score.
In the case of TGAACCAA, the binding signal was 0.0123 E-score.
The same measure for ACCTGGTA: 0.083 E-score.
The same measure for CCCAGTAC: 0.144 E-score; for ACACACCC: 0.39 E-score.
As for AGAAAATG, the figure is -0.211 E-score.
In the case of CAATCCTA, the binding signal was -0.249 E-score.
As for ACCTGCAC, the figure is 0.121 E-score; as for AATTGCAA, -0.345 E-score.
TCGACGAA: the binding signal is -0.0112 E-score.
As for ATTACAAA, the binding signal is -0.351 E-score.
As for GGCTGAAA, the figure is -0.143 E-score.
The same measure for CGGAAAAC: -0.0631 E-score; for AAAAGCCC: -0.24 E-score.
The same measure for GATAGGAA: -0.0843 E-score.
Consider ATGCATTG, for which the binding signal was -0.0781 E-score.
The same measure for GGCCACCA: -0.0538 E-score; for CTATACAC: 0.379 E-score.
On to CGGTAGAC, for which the binding signal is -0.0105 E-score.
As for AATCTCGG, the binding signal is -0.0614 E-score.
Take CACTGACA: the binding signal came out at 0.28 E-score.
As to AGATCCAG, the binding signal is 0.0405 E-score.
As for ATTCGAGA, the binding signal is -0.0138 E-score.
For ACTAGTGA, the binding signal is 0.0644 E-score.
In the case of AACCGTAA, the binding signal was -0.153 E-score.
As for GATAGTTA, the figure is -0.0408 E-score; as for CATCAGAG, 0.0727 E-score.
Take CTCGAACA: the binding signal stood at 0.0522 E-score.
The same measure for CCGGTTTC: -0.0619 E-score; for CTATGCGC: -0.134 E-score.
As for CTTACAAC, the binding signal was -0.0585 E-score.
As for ACTCAATA, the figure is 0.12 E-score; as for ATCTTGAA, -0.265 E-score; as for GAGTAATA, 0.141 E-score.
The same measure for ACGTTTAA: -0.323 E-score.
The same measure for CGCATAAA: -0.0365 E-score; for ATAAACAG: -0.0724 E-score; for CCTTACTC: 0.0444 E-score.
For the sequence AGCAGCGG, the binding signal was 0.0613 E-score.
As for TAGTTGCA, the figure is 0.0297 E-score; as for CGAAAGCA, -0.119 E-score; as for AAGGGTCC, 0.037 E-score.
As for GGTCCACA, the figure is 0.17 E-score; as for GTTCCCGA, -0.138 E-score.
The same measure for CTGACACA: 0.297 E-score.
As for CAGCCGCG, the binding signal was -0.0345 E-score.
The same measure for ACGCTTAA: -0.152 E-score; for AACATACC: 0.0978 E-score; for TATGTCAA: -0.0378 E-score.
As for AAGTTTTG, the figure is 0.107 E-score; as for ACGAAATA, -0.0357 E-score; as for ATAGAAGC, -0.171 E-score.
As for ATCGAATC, the figure is -0.0584 E-score; as for TAAATAGA, -0.16 E-score; as for TCAGCTGA, -0.00855 E-score.
Turning to TACCGCTA, the binding signal was found to be 0.138 E-score.
Consider AACCCAGA, for which the binding signal stood at 0.214 E-score.
The same measure for CCATTTAG: -0.0186 E-score.
Turning to AGTAAAGA, the binding signal is -0.255 E-score.
As for TAGATAGA, the figure is -0.00407 E-score; as for GACTCCTA, 0.215 E-score.
Take CCCGTGCC: the binding signal is 0.0493 E-score.
As for CAGTCGCA, the figure is -0.166 E-score.
The same measure for CATTGGTC: -0.192 E-score; for ATTCGATC: -0.0582 E-score; for CCAATAGG: 0.126 E-score.
The same measure for ACTGTCAC: -0.0469 E-score; for ATTGTAGA: -0.183 E-score; for TCTAGCAA: 0.018 E-score.
Take TCTACTAA: the binding signal was 0.00987 E-score.
Turning to GAAATCCA, the binding signal is -0.0993 E-score.
The same measure for AGCTCCTA: -0.225 E-score; for AGGAACCC: 0.107 E-score; for AGAACTCC: 0.0866 E-score.
As for CGGGCGGC, the figure is 0.021 E-score; as for GAGCAAGA, -0.0996 E-score.
In the case of TCTATTAA, the binding signal is -0.0196 E-score.
The same measure for GGTCAATA: 0.0293 E-score.
As for AACGCTAA, the figure is -0.091 E-score; as for CTTATGCA, -0.0294 E-score; as for CTGACTTC, -0.159 E-score.
Regarding AATCCTAC, the binding signal amounted to 0.0611 E-score.
On to ACAAGCCA, for which the binding signal was -0.0852 E-score.
Regarding AGTATTGG, the binding signal is -0.101 E-score.
ATTCGTTC: the binding signal is -0.124 E-score.
As for CTTCAATA, the binding signal is 0.0683 E-score.
As for ATTCTACG, the figure is 0.0246 E-score.
For CACGTAAG, the binding signal was found to be 0.107 E-score.
As for ACAGACGT, the figure is -0.0836 E-score; as for ACATGGGT, 0.209 E-score.
Regarding GTGGTCCA, the binding signal was -0.139 E-score.
The same measure for CGGACTAC: -0.0941 E-score; for TCATCAAA: -0.196 E-score; for GCACTCCA: 0.0802 E-score.
As for AGACTATA, the figure is -0.101 E-score.
As for GTTCCATA, the figure is 0.0438 E-score; as for AAACCACG, -0.0307 E-score; as for CGGGATTC, 0.0315 E-score.
As for CCAGCCAG, the binding signal is -0.0604 E-score.
The same measure for CTTACTGA: -0.0119 E-score.
The same measure for AGCATTAG: -0.168 E-score; for ATTGCCGG: -0.0374 E-score; for GAATGACC: -0.0497 E-score.
As for GGCTCGTA, the figure is 0.0343 E-score; as for GCATTCGC, -0.0774 E-score; as for ACAGATTG, 0.00756 E-score.
As for ATATTGCA, the binding signal is -0.122 E-score.
AAACAGCC: the binding signal was -0.213 E-score.
As for AGTTTGAA, the figure is -0.18 E-score.
As for GCAATCAC, the figure is -0.0882 E-score; as for CCTTCCAG, -0.13 E-score; as for ATGCATGC, -0.14 E-score.
As for ATGGACGA, the figure is -0.151 E-score.
As for AGCTGTCG, the binding signal was -0.101 E-score.
Take AAGCCAGT: the binding signal is -0.155 E-score.
As for CTCGCGAA, the figure is -0.191 E-score; as for GCCATTGA, -0.159 E-score.
As for ACCCGTTA, the figure is 0.119 E-score; as for ATCTACCA, -0.068 E-score; as for CGCTTCTC, -0.0702 E-score.
As for CGAGGATC, the figure is 0.0989 E-score; as for AGGGGCAT, -0.0339 E-score.
For the sequence GACAATCA, the binding signal was -0.0739 E-score.
The same measure for GACAGCTA: -0.232 E-score; for ATCTGCCC: 0.126 E-score.
The same measure for CAATTAGG: 0.0238 E-score; for CATTGGGG: 0.162 E-score.
Regarding AGGCGGCG, the binding signal was 0.0595 E-score.
The same measure for ATGAGAGG: -0.113 E-score.
